The results in this text go back to the supplement of paper PMC9446081.

SMILES strings stand for the structures. Among all 39,000 compounds or so, about 220 (0.56%) showed activity. The list shows a part of the results.
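Note: static incubation at 37 °C against the wild-type strain, values averaged over two biological replicates.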

The assay deals with Escherichia coli K-12 BW25113. Kind of assay: relative growth (OD600 normalised to plate interquartile mean) (fraction); higher = less growth inhibition, active = 0.2 or less. As to conditions: 50 µM; LB; incubation time: overnight (16-24 h).
`Cc1ccc(S(=O)(=O)N(C)C[C@H]2Oc3c(NC(=O)c4cc(C)nn4C)cccc3C(=O)N([C@@H](C)CO)C[C@@H]2C)cc1`: the relative growth is inactive: 0.98.
The result for `NCCCCCNC(=O)[C@@H]1C[C@@H]2C(=O)N[C@@H](CCCCN)C(=O)N2[C@@H]1c1cccc(OCCO)c1` reads inactive: 1.01; that for `CC(C)=CCCC1(C)C=Cc2c(O)c3c(c(CC=C(C)C)c2O1)OC12C(=CCCC1C(C)(C)OC2(CC=C(C)C(=O)O)C(=O)O)C3=O` (centres undefined), inactive: 1.09.
With `C[C@H]1CN([C@@H](C)CO)C(=O)c2cccc(NC(=O)C3CCCCC3)c2O[C@@H]1CN(C)Cc1ccc(Oc2ccccc2)cc1`, the relative growth was inactive: 1.01.
For `COc1ccc(S(=O)(=O)N2C[C@H](O)COC[C@@H]3O[C@@H](CC(=O)NCCN4CCCCC4)CC[C@H]32)cc1` the value was inactive: 1.02; for `C[C@@H]1CCCCO[C@H](CN(C)C(=O)C2CCCCC2)[C@H](C)CN([C@@H](C)CO)C(=O)c2cc(NC(=O)Nc3ccc(F)cc3)ccc2O1`, inactive: 1.03.
For `C[C@@H]1CCCCO[C@@H](CN(C)Cc2ccc(C(=O)Nc3ccccc3N)cc2)[C@@H](C)CN([C@H](C)CO)C(=O)c2cc(NS(=O)(=O)c3ccccc3)ccc2O1` the value was inactive: 0.998.
For `C[C@H](CO)N1C[C@H](C)[C@@H](CN(C)S(=O)(=O)c2cn(C)cn2)Oc2ccc(NS(=O)(=O)c3ccc(F)cc3)cc2CC1=O` the value was inactive: 1.02; for `CC(C)CC#Cc1ccc2c(c1)O[C@H](CN(C)C(=O)Cc1ccccn1)[C@H](C)CN([C@H](C)CO)S2(=O)=O`, inactive: 0.963.
With `C[C@H]1CN([C@@H](C)CO)C(=O)Cc2cc(NC(=O)Cn3cnnn3)ccc2O[C@@H]1CN(C)Cc1ccc(C(=O)Nc2ccccc2N)cc1`, the relative growth is inactive: 1.02.
For `COc1ccc(NC(=O)Nc2ccc3c(c2)CC(=O)N([C@H](C)CO)C[C@@H](C)[C@@H](CN(C)Cc2ccc(C(F)(F)F)cc2)O3)cc1` the value was inactive: 0.998.
For `C[C@@H]1CN([C@@H](C)CO)C(=O)Cc2cc(NC(=O)Nc3cccc4ccccc34)ccc2O[C@H]1CN(C)Cc1ccc(Cl)c(Cl)c1` the value was inactive: 0.982.
The result for `CC(C)(N)c1ccc(F)cc1` reads inactive: 1.01; that for `O=C(NO)c1cn(CC(=O)N2CCC3(CC2)C(=O)NCN3c2ccccc2)nn1`, inactive: 0.94.
Take `CCS(=O)(=O)N1C[C@]2(C1)CN([C@@H](CO)c1[nH]c3cc(ccc3c12)OC)C(=O)Nc1c(noc1C)C`: the relative growth was inactive: 1.04.
For `CC(=O)N[C@@H](Cc1ccccc1)C(=O)O` the value was inactive: 1.01; for `CO[C@@]12[C@H](COC(N)=O)C3=C(C(=O)C(C)=C(N)C3=O)N1C[C@@H]1N[C@@H]12`, inactive: 1.01; for `Cc1noc(C)c1NC(=O)N(C)C[C@@H]1OCCCC[C@@H](C)Oc2ccc(NC(=O)c3ccccc3)cc2C(=O)N([C@H](C)CO)C[C@@H]1C`, inactive: 1.
For `C[C@@H]1CN([C@H](C)CO)C(=O)CCCn2cc(nn2)CO[C@@H]1CN(C)C(=O)Nc1cccc(C(F)(F)F)c1` the value was inactive: 1.01.
The result for `C[C@H](CO)N1C[C@H](C)[C@@H](CN(C)S(C)(=O)=O)Oc2ccc(NS(=O)(=O)c3ccc(F)cc3)cc2C1=O` reads inactive: 0.987; that for `C[C@@H]1CCCCO[C@H](CN(C)C(=O)CCCN(C)C)[C@@H](C)CN([C@H](C)CO)C(=O)c2cc(NC(=O)Nc3ccc(C(F)(F)F)cc3)ccc2O1`, inactive: 1.
For `C[C@@H]1[C@H]2[C@H](O[C@@H]3O[C@H](CO)[C@@H](O)[C@H](O)[C@H]3O)OC=C(C(=O)O)[C@H]2C[C@@H]1O`, the relative growth was inactive: 0.992.
The result for `Cc1ccc(S[C@]2(C(=O)NC(C)C)CC(=O)N(C3CCCCC3)[C@@H]2c2ccc(CO)cc2I)cc1` reads inactive: 0.996; that for `COc1ccc(NC(=O)Nc2ccc3c(c2)CC(=O)N([C@@H](C)CO)C[C@H](C)[C@H](CN(C)C(=O)Nc2cccc4ccccc24)O3)cc1`, inactive: 0.994.
Consider `O=C(O)C=CC(=O)O.OCCOCCN1CCN(C2=Nc3ccccc3Sc3ccccc32)CC1`, for which the relative growth is inactive: 0.3.
The result for `Cc1ccc(S(=O)(=O)Nc2ccc3c(c2)CC(=O)N([C@H](C)CO)C[C@@H](C)[C@@H](CN(C)CC2CC2)O3)cc1` reads inactive: 1.01.
The result for `C[C@@H]1CN([C@@H](C)CO)S(=O)(=O)c2ccc(C3=CCCCC3)cc2O[C@H]1CN(C)Cc1cncnc1` reads inactive: 1.01.
The result for `CC(C)NC(=O)Nc1ccc2c(c1)C(=O)N([C@H](C)CO)C[C@@H](C)[C@H](CN(C)Cc1ccc(Cl)c(Cl)c1)OCCCC[C@H](C)O2` reads inactive: 0.987; that for `OCC(O)C(O)CO` (centres undefined), inactive: 0.931.
Regarding `O=C1CN(C(=O)c2ccc3c(c2)OCO3)CCN1`, the relative growth was inactive: 1.
The result for `O=C(C[C@H]1C[C@H]2c3cc(NC(=O)C4CCOCC4)ccc3O[C@H]2[C@H](CO)O1)NCc1ccc(Cl)cc1` reads inactive: 1.04.
For `Cc1ccc(N2C[C@@H](N)CC2=O)cc1` the value was inactive: 0.971; for `CCC(=O)N1CCC[C@](C)(C(=O)NS(=O)(=O)c2ccc(S(C)(=O)=O)cc2)C1`, inactive: 0.927; for `C[C@@H]1CN([C@@H](C)CO)C(=O)c2cc(NS(=O)(=O)c3ccccc3)ccc2O[C@@H](C)CCCCO[C@@H]1CN(C)S(=O)(=O)c1cn(C)cn1`, inactive: 1.01.
Regarding `C[C@@H]1CN([C@H](C)CO)C(=O)c2cc(NC(=O)Nc3ccc(C(F)(F)F)cc3)ccc2O[C@H]1CN(C)Cc1ccc(C(=O)O)cc1`, the relative growth was inactive: 0.952.
`C[C@@H]1CN([C@@H](C)CO)C(=O)c2cc(NC(=O)Nc3ccc(C(F)(F)F)cc3)ccc2O[C@@H]1CN(C)Cc1ccc(C(=O)Nc2ccccc2N)cc1`: the relative growth is inactive: 1.02.
For `Nn1c(-c2ccncc2)n[nH]c1=S` the value was inactive: 0.977.
For `C[C@@H]1CCCCO[C@@H](CN(C)Cc2ccc3c(c2)OCO3)[C@H](C)CN([C@@H](C)CO)C(=O)c2cc(NS(=O)(=O)c3ccc(Cl)cc3)ccc2O1` the value was inactive: 0.966.
For `C/C=C\C1=C(C(=O)O)N2C(=O)[C@H](NC(=O)[C@@H](N)c3ccc(O)cc3)[C@@H]2SC1` the value was inactive: 0.912; for `CCOC(=O)[C@H]1CC(C)=NNC1=O`, inactive: 1.01; for `C[C@@H]1CN([C@@H](C)CO)C(=O)c2cc(NS(=O)(=O)c3ccccc3)ccc2O[C@@H](C)CCCCO[C@H]1CN(C)C(=O)c1ccccc1`, inactive: 1.
Turning to `C[C@@H]1CN([C@@H](C)CO)C(=O)c2cc(C#CC3(O)CCCC3)cnc2O[C@H]1CN(C)C(=O)Cc1ccccc1`, the relative growth is inactive: 1.
The result for `Cc1noc(C)c1NC(=O)N(C)C[C@H]1Oc2c(NC(=O)C3CCOCC3)cccc2C(=O)N([C@@H](C)CO)C[C@H]1C` reads inactive: 0.999; that for `Cn1cc(C(=O)N2C[C@@H]3COC[C@@]3(CNS(C)(=O)=O)C2)cn1`, inactive: 1.02; that for `Cc1ccc(S(=O)(=O)NCC[C@H]2CC[C@@H](NS(=O)(=O)c3ccccc3Cl)[C@H](CO)O2)cc1`, inactive: 1.
For `OCCNC(=S)c1ccccc1` the value was inactive: 0.998; for `Cc1ccc(S(=O)(=O)N(C)C[C@@H]2OCCCC[C@@H](C)Oc3ccc(NS(=O)(=O)c4ccc(Cl)cc4)cc3C(=O)N([C@@H](C)CO)C[C@H]2C)cc1`, inactive: 1.02.
For `COCCOC(=O)N1C(=O)[C@@]2(c3cc(C#CCCO)ccc31)[C@H](C(=O)NC[C@H](O)c1ccccc1)[C@H]1C(=O)O[C@H](c3ccccc3)[C@H](c3ccccc3)N1[C@@H]2c1ccc(O)cc1` the value was inactive: 1.01.
As to `C[C@@H](O)C[C@H]1CC[C@@H](O)[C@@H](C)C(=O)O[C@@H](C[C@@H](C)O)CC[C@@H](O)[C@@H](C)C(=O)O1`, the relative growth is inactive: 0.982.
On to `COc1ccc(NC(=O)Nc2ccc3c(c2)CC(=O)N([C@@H](C)CO)C[C@H](C)[C@@H](CN(C)Cc2ccc(Oc4ccccc4)cc2)O3)cc1`, for which the relative growth was inactive: 1.07.
For `NC(CSSCC(N)C(=O)O)C(=O)O` (centres undefined) the value was inactive: 1.02; for `O=c1cc(C(F)(F)F)[nH]c(=O)[nH]1`, inactive: 0.996; for `C[C@@H]1CN([C@@H](C)CO)C(=O)c2cc(NS(C)(=O)=O)ccc2O[C@H]1CN(C)Cc1ccc(C(=O)Nc2ccccc2N)cc1`, inactive: 1.
For `C[C@@H]1CCCCO[C@@H](CN(C)S(=O)(=O)c2ccc(Cl)cc2)[C@@H](C)CN([C@H](C)CO)C(=O)c2cc(NS(=O)(=O)c3cccs3)ccc2O1` the value was inactive: 1.03; for `N[C@@H](C[C@@H](F)C(=O)O)C(=O)O`, inactive: 1.
For `C[C@@H]1CN([C@H](C)CO)C(=O)c2cccc(NC(=O)CCCCCC(=O)Nc3ccccc3N)c2O[C@H]1CN(C)Cc1ccc(Cl)c(Cl)c1` the value was inactive: 1.
In the case of `CCc1cccc2c3c([nH]c12)C(CC)(CC(=O)O)OCC3` (centres undefined), the relative growth was inactive: 1.05.
Regarding `C[C@H](CO)N1C[C@H](C)[C@H](CN(C)C(=O)Nc2ccccc2)OCCCC[C@H](C)Oc2ccc(NC(=O)c3ccncc3)cc2C1=O`, the relative growth was inactive: 1.02.
For `Cc1noc(NS(=O)(=O)c2ccc(N)cc2)c1C`, the relative growth is inactive: 0.894.
Turning to `CC1CC2C3CC(F)C4=CC(=O)C=CC4(C)C3(F)C(O)CC2(C)C1(O)C(=O)CO` (centres undefined), the relative growth was inactive: 1.09.
For `N[C@]1(C(=O)O)C[C@H](C(=O)O)C1` the value was inactive: 1.05.
On to `C[C@H](CO)N1C[C@H](C)[C@H](CN(C)C(=O)C2CCCCC2)Oc2cc(C#C[C@@H](C)O)ccc2S1(=O)=O`, for which the relative growth was inactive: 0.93.
Turning to `Cc1ccc(S(=O)(=O)N(C)C[C@@H]2OCCCC[C@@H](C)Oc3ccc(NC(=O)C4CCCCC4)cc3C(=O)N([C@H](C)CO)C[C@H]2C)cc1`, the relative growth is inactive: 1.01.
For `CCC[C@H](NC(=O)[C@@H]1[C@H]2CCC[C@H]2CN1C(=O)[C@@H](NC(=O)[C@@H](NC(=O)c1cnccn1)C1CCCCC1)C(C)(C)C)C(=O)C(=O)NC1CC1` the value was inactive: 1.16.
